Test results reported in paper PMC7819943, “Rice protein-binding microarrays: a tool to detect cis-acting elements near promoter regions in rice”.
The other results are listed elsewhere or left out.

molecular target: T1, OsWOX13 (Oryza sativa, UniProt Q5QMM3 1-267); assay: protein-binding microarray (RPBM); PBS, 2% BSA, 51.3 ng/ul salmon testes DNA, 50 uM zinc acetate, 200 nM TF, 25 C, 1 h; high values mean tight binding; conditions: protein: recombinant; tags: N-terminal polyhistidine and DsRed monomer fusion (pET32a); label: CyDye5-dUTP incorporated in the synthesized complementary strand; 3' TTTTT single-stranded linker to array surface; dsDNA, one strand shown
T1 sequence: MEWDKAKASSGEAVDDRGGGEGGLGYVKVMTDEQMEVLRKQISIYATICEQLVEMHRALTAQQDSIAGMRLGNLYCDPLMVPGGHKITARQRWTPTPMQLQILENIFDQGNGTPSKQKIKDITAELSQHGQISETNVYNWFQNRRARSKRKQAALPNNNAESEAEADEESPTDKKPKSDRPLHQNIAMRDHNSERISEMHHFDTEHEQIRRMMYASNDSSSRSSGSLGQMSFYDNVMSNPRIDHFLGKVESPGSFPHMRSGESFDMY
Procedure, shortened: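 Transcription factors were each fused at the N-terminus to a polyhistidine tag plus DsRed and expressed in E. coli BL21-CodonPlus before Ni–NTA purification. Binding to a double-stranded custom Agilent array was carried out with 200 nM protein at 25 °C for 1 h in PBS, 2% BSA, salmon testes DNA and 50 µM zinc acetate. The binding signal is per-feature fluorescence intensity, in arbitrary units, on an Axon 4000B scanner.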

| Sequence | binding signal |
| --- | --- |
| TCGTTGATTTGGTGTCCACGGCGAGTCGGAAGCGACGGCGCGGAGTCACCTAGTGCAG | 13500 fluorescence intensity (a.u.) |
| TCAAATTAACTGGCACGGTCATACACTTAAAGGCAAGCTTCGGAGTCACCTAGTGCAG | 28500 fluorescence intensity (a.u.) |
| GTCATTAACGTCAAATCATTCTCTGCTAATAATGCAAGGCCGGAGTCACCTAGTGCAG | 6720 fluorescence intensity (a.u.) |
| GATTAAATTTTGATATGAGCGGTTCTAATCCATGAGACAACGGAGTCACCTAGTGCAG | 6140 fluorescence intensity (a.u.) |
| ATGATTGGAGAGGAGATGGGCAAGAAAGTGGCGAGACCAACGGAGTCACCTAGTGCAG | 21600 fluorescence intensity (a.u.) |
| TACCATTAAATTTATTGCAATTAAATCTTCAAAATAAGACCGGAGTCACCTAGTGCAG | 8580 fluorescence intensity (a.u.) |
| GGCTAATAGTAGGTTGATTAGTCCTTATTGTGCTTGCCCTCGGAGTCACCTAGTGCAG | 28500 fluorescence intensity (a.u.) |
| ATTAGATTAAACGAGGCGAGAGAGCGTGTCCCACACCGGACGGAGTCACCTAGTGCAG | 4110 fluorescence intensity (a.u.) |
| AAAACAGAAAATAGCCAGTCAACCAAACAGTTGTCTTGACCGGAGTCACCTAGTGCAG | 6230 fluorescence intensity (a.u.) |
| ACTGTAATTATACTGGATCGAGGAAGAACATTGATAATCACGGAGTCACCTAGTGCAG | 10200 fluorescence intensity (a.u.) |
| GATTGCATCATCGCCCTAAATTGAAACAGCGATGATATGACGGAGTCACCTAGTGCAG | 3620 fluorescence intensity (a.u.) |
| GCTAATCATGGATTAATTAGGCTCATTAGATTCGTCTCGTCGGAGTCACCTAGTGCAG | 41100 fluorescence intensity (a.u.) |
| CGTTAACGTTAAATGGTATTTTCGCAGACCTTGATAGTGACGGAGTCACCTAGTGCAG | 7400 fluorescence intensity (a.u.) |
| CCAATAATTTTGAGACTCACAATGCGAAGGTTGTCCAAGCCGGAGTCACCTAGTGCAG | 7230 fluorescence intensity (a.u.) |
| ATTGACTATATTTATCATTTAAACTATTCAATGTCAATATCGGAGTCACCTAGTGCAG | 6180 fluorescence intensity (a.u.) |
| ACGTTGATCAATTAATTAATTTAAGTAAGATCGATCAAGCCGGAGTCACCTAGTGCAG | 48500 fluorescence intensity (a.u.) |
| ACCTAATTAGATCAGCACCATTTCACCACCCCGGATCGACCGGAGTCACCTAGTGCAG | 25600 fluorescence intensity (a.u.) |
| ACAAATTAATAAAATATTACGGTAACACAAAACCAAGGGGCGGAGTCACCTAGTGCAG | 12900 fluorescence intensity (a.u.) |
| TTGATCTGATTAATTAACTGATCAGACGGGTCGACGGGACCGGAGTCACCTAGTGCAG | 55700 fluorescence intensity (a.u.) |
| ATTAGATTACCTGATAGAGGCATTATTTTCCAATGCTATTCGGAGTCACCTAGTGCAG | 16700 fluorescence intensity (a.u.) |
| TTTTAATTTGGTAGGATCGAAACATGGTAAAATAATGGATCGGAGTCACCTAGTGCAG | 6590 fluorescence intensity (a.u.) |

| Sequence | binding signal |
| --- | --- |
| GAAACGTGATTCAAATGATTATTCAGGTACAATAATCTTACGGAGTCACCTAGTGCAG | 8070 fluorescence intensity (a.u.) |
| ATCACATAAATTTAGAATACAATCAAAATTACCATCTCTCCGGAGTCACCTAGTGCAG | 5110 fluorescence intensity (a.u.) |
| CCGCCGTCGCGTGGGAGGGGAGGGGAGGGGATGGAAGGAGCGGAGTCACCTAGTGCAG | 3930 fluorescence intensity (a.u.) |
| AATTAATTAGTTGCATGAAATCTTGACATCTGCAGGTTGTCGGAGTCACCTAGTGCAG | 43100 fluorescence intensity (a.u.) |
| ATTAAATTAAGCATCAGTGGACAGTGTATGCGAGGCCGTACGGAGTCACCTAGTGCAG | 11100 fluorescence intensity (a.u.) |
| CATTAGATTTACATTTTGGTTTTGGATCGATTAATTCATGCGGAGTCACCTAGTGCAG | 10900 fluorescence intensity (a.u.) |
| ATAATGGATTGCTTGTTCCAGCACTGAATGTGCTGCCAAGCGGAGTCACCTAGTGCAG | 6550 fluorescence intensity (a.u.) |
| CCTGATTGGTTGTATTGCTTGAAGTAGACTATTGAGATTGCGGAGTCACCTAGTGCAG | 60200 fluorescence intensity (a.u.) |
| TTTAACAGGCCAAAATCTTCTAGAATACGAATTATGCTACCGGAGTCACCTAGTGCAG | 6410 fluorescence intensity (a.u.) |
| GACTCTTCTAATCAAGTGATCAAATGAGCCTAATCCAACTCGGAGTCACCTAGTGCAG | 6630 fluorescence intensity (a.u.) |
| TCGGTTCTTAATTGACCCAAGCAAACACTCTCTCTATAGACGGAGTCACCTAGTGCAG | 12000 fluorescence intensity (a.u.) |
| ACCTTCAATTAATTTTGCTTCAGTTTTCATCAGAAAGGCTCGGAGTCACCTAGTGCAG | 25800 fluorescence intensity (a.u.) |
| TATTAGATTACTCTAATTATTGCGCGTGGCTGAGGTAAACCGGAGTCACCTAGTGCAG | 14000 fluorescence intensity (a.u.) |
| CATCACATAATTTCCTAAATTTCGTAGGATACTATCAAAACGGAGTCACCTAGTGCAG | 3400 fluorescence intensity (a.u.) |
| CTACTACAATGATTAGATGGTTCTAAACTTCTAATGTAATCGGAGTCACCTAGTGCAG | 12500 fluorescence intensity (a.u.) |
| TACAGCCAATTAAACAATTATTGGAGTGTCCATCAGCTATCGGAGTCACCTAGTGCAG | 20600 fluorescence intensity (a.u.) |
| AACAATCTAGAATTGGATTAGACACATCTTAGTTTCATGACGGAGTCACCTAGTGCAG | 3270 fluorescence intensity (a.u.) |
| CACTAATACTGTATGATTTAAACATAACACAATGTATGCCCGGAGTCACCTAGTGCAG | 10900 fluorescence intensity (a.u.) |
| CATGTGCCAATCAAGCCCGAGAACGGAAAACCCGCAGGCGCGGAGTCACCTAGTGCAG | 10900 fluorescence intensity (a.u.) |
| TGCGATTAACTGGACTTGTTCCTGCAGACACACGGGCAGTCGGAGTCACCTAGTGCAG | 8480 fluorescence intensity (a.u.) |
| ATATGTTAATAAATCTCATTAACATCTATATGAATGTGAGCGGAGTCACCTAGTGCAG | 3710 fluorescence intensity (a.u.) |
